Experimental data taken from the supplement of paper PMC8728848.
This is one part of the list.

How the values were obtained:
Test in all cases: glycan array binding signal (z-score within array); higher = stronger binding
Settings in all cases: glycan notation: IUPAC condensed, linker removed
[1] = target: Gal(b1-3)GalNAc(b1-3)Gal(a1-4)Gal(b1-4)Glc
In short: (§1)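 The binding signal is a Z-score computed within each array. Data were drawn from 3228 arrays in the Consortium for Functional Glycomics database, restricted to those with a known protein sequence. Scores were averaged over arrays of the same protein sequence at different concentrations or buffers, and over linkers, and negative values can be taken as non-binding.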

[2] = target: Gal(b1-3)GalNAc(b1-4)Gal(b1-4)Glc
In short: as §1

[3] = target: Gal(b1-3)GalNAc(b1-4)[Neu5Ac(a2-3)]Gal(b1-4)Glc
In short: as §1

Gal(b1-3)GlcNAc = target: Gal(b1-3)GlcNAc
In short: as §1

[4] = target: Gal(b1-3)GlcNAc(a1-3)Gal(b1-4)GlcNAc
In short: as §1

[5] = target: Gal(b1-3)GlcNAc(a1-6)Gal(b1-4)GlcNAc
In short: as §1

Gal(b1-3)GlcNAc(b1-2)Man = target: Gal(b1-3)GlcNAc(b1-2)Man
In short: as §1

[6] = target: Gal(b1-3)GlcNAc(b1-2)Man(a1-3)[Gal(b1-3)GlcNAc(b1-2)Man(a1-6)]Man(b1-4)GlcNAc(b1-4)GlcNAc
In short: as §1

[7] = target: Gal(b1-3)GlcNAc(b1-2)Man(a1-3)[Gal(b1-3)GlcNAc(b1-2)Man(a1-6)]Man(b1-4)GlcNAc(b1-4)[Fuc(a1-6)]GlcNAc
In short: as §1

[8] = target: Gal(b1-3)GlcNAc(b1-2)Man(a1-3)[GlcNAc(b1-4)][Gal(b1-3)GlcNAc(b1-2)Man(a1-6)]Man(b1-4)GlcNAc(b1-4)GlcNAc
In short: as §1

[9] = target: Gal(b1-3)GlcNAc(b1-2)[Gal(b1-3)GlcNAc(b1-6)]Man(a1-6)[Gal(b1-3)GlcNAc(b1-2)Man(a1-3)]Man(b1-4)GlcNAc(b1-4)GlcNAc
In short: as §1

[10] = target: Gal(b1-3)GlcNAc(b1-3)Gal(b1-3)GlcNAc
In short: as §1

[11] = target: Gal(b1-3)GlcNAc(b1-3)Gal(b1-4)Glc
In short: as §1

[12] = target: Gal(b1-3)GlcNAc(b1-3)Gal(b1-4)GlcNAc
In short: as §1

[13] = target: Gal(b1-3)GlcNAc(b1-3)Gal(b1-4)GlcNAc(b1-2)Man(a1-3)[Gal(b1-3)GlcNAc(b1-3)Gal(b1-4)GlcNAc(b1-2)Man(a1-6)]Man(b1-4)GlcNAc(b1-4)GlcNAc
In short: as §1

[14] = target: Gal(b1-3)GlcNAc(b1-3)Gal(b1-4)GlcNAc(b1-2)[Gal(b1-3)GlcNAc(b1-3)Gal(b1-4)GlcNAc(b1-6)]Man(a1-6)[Gal(b1-3)GlcNAc(b1-3)Gal(b1-4)GlcNAc(b1-2)Man(a1-3)]Man(b1-4)GlcNAc(b1-4)[Fuc(a1-6)]GlcNAc
In short: as §1

[15] = target: Gal(b1-3)GlcNAc(b1-3)Gal(b1-4)GlcNAc(b1-3)Gal(b1-4)GlcNAc(b1-2)[Gal(b1-3)GlcNAc(b1-3)Gal(b1-4)GlcNAc(b1-3)Gal(b1-4)GlcNAc(b1-6)]Man(a1-6)[Gal(b1-3)GlcNAc(b1-3)Gal(b1-4)GlcNAc(b1-3)Gal(b1-4)GlcNAc(b1-2)Man(a1-3)]Man(b1-4)GlcNAc(b1-4)[Fuc(a1-6)]GlcNAc
In short: as §1

[16] = target: Gal(b1-3)GlcNAc(b1-3)Gal(b1-4)GlcNAc(b1-6)[Gal(b1-3)GlcNAc(b1-3)]Gal(b1-4)Glc
In short: as §1

[17] = target: Gal(b1-3)GlcNAc(b1-3)Gal(b1-4)[Fuc(a1-3)]GlcNAc
In short: as §1

[18] = target: Gal(b1-3)GlcNAc(b1-3)Gal(b1-4)[Fuc(a1-3)]GlcNAc(b1-6)[Gal(b1-3)GlcNAc(b1-3)]Gal(b1-4)Glc
In short: as §1

[19] = target: Gal(b1-3)GlcNAc(b1-3)GalNAc
In short: as §1

[20] = target: Gal(b1-3)GlcNAc(b1-6)Gal(b1-4)GlcNAc
In short: as §1

[21] = target: Gal(b1-3)GlcNAc(b1-6)GalNAc
In short: as §1

[22] = target: Gal(b1-3)GlcNAc(b1-6)[Gal(b1-3)]GalNAc
In short: as §1

Gal(b1-3)GlcNAc6S = target: Gal(b1-3)GlcNAc6S
In short: as §1

[23] = target: Gal(b1-3)[Fuc(a1-4)]GlcNAc
In short: as §1

[24] = target: Gal(b1-3)[Fuc(a1-4)]GlcNAc(b1-2)Man
In short: as §1

[25] = target: Gal(b1-3)[Fuc(a1-4)]GlcNAc(b1-2)Man(a1-3)[Gal(b1-3)[Fuc(a1-4)]GlcNAc(b1-2)Man(a1-6)]Man(b1-4)GlcNAc(b1-4)[Fuc(a1-6)]GlcNAc
In short: as §1

[26] = target: Gal(b1-3)[Fuc(a1-4)]GlcNAc(b1-3)Gal(b1-3)[Fuc(a1-4)]GlcNAc
In short: as §1

[27] = target: Gal(b1-3)[Fuc(a1-4)]GlcNAc(b1-3)Gal(b1-4)[Fuc(a1-3)]GlcNAc
In short: as §1

[28] = target: Gal(b1-3)[Fuc(a1-4)]GlcNAc(b1-6)GalNAc
In short: as §1

[29] = target: Gal(b1-3)[GlcNAc(b1-6)]GalNAc
In short: as §1

[30] = target: Gal(b1-3)[Neu5Ac(a2-6)]GalNAc
In short: as §1

[31] = target: Gal(b1-3)[Neu5Ac(a2-6)]GlcNAc(b1-4)Gal(b1-4)Glc
In short: as §1

[32] = target: Gal(b1-3)[Neu5Ac(b2-6)]GalNAc
In short: as §1

Gal(b1-4)Gal = target: Gal(b1-4)Gal
In short: as §1

[33] = target: Gal(b1-4)GalNAc(a1-3)[Fuc(a1-2)]Gal(b1-4)GlcNAc
In short: as §1

[34] = target: Gal(b1-4)GalNAc(b1-3)[Fuc(a1-2)]Gal(b1-4)GlcNAc
In short: as §1

B1: PX14367B-bvu-516-23-516 (Bacteroides vulgatus) (protein)
chain: LDTIPTTYVDAGSVFGKTGDAEKVLNGGWNYLMETFNSYANPGYGAMLRANDAMGSDVVLNSKYGFRTHNEFSAIYGKGGTNTLSWLLAYRVINDCNGVLDNIDAAEGTQADRNRIKGQALALRGFLYLHLASCYSFAIDKDPDAVCAPIYTQSTDETIAAEGKPASSVSEVYAQSINDLEEALELIPETYVRDAKHKIDNEVVLGILSRACLYARQWEKAKTYSDKLLAKDNYLMTESEYKAGFNSVDNKEWIWGHAQTNDQSNASYQFHYLDTTTKGSYYYSFNVDPYFRDLFEDGDYRKEMLFWATDPGADVESAAYVWMRNSKFRFRDIENQLGDIVLMRVAEIYLINAEAKAHLNDPDAINKLNDLKTARGAKTIHTNLSQQDLLETIWLERRKELWGEGFSLIDIIRNQQTVVRNAYPEGPIDYIYTDENGQTHTLKKKTQGHRFFNFPDKSAFCPNSKYYLYRITDSEELANKNLYKDHPKLSIYTK
[1]
  glycan array binding signal (z-score): -0.336
[2]
  glycan array binding signal (z-score): -0.241
[3]
  glycan array binding signal (z-score): -0.373
Gal(b1-3)GlcNAc
  glycan array binding signal (z-score): -0.23
[4]
  glycan array binding signal (z-score): 0.107
[5]
  glycan array binding signal (z-score): 0.187
Gal(b1-3)GlcNAc(b1-2)Man
  glycan array binding signal (z-score): -0.216
[6]
  glycan array binding signal (z-score): 7.76
[7]
  glycan array binding signal (z-score): -0.248
[8]
  glycan array binding signal (z-score): -0.246
[9]
  glycan array binding signal (z-score): 0.264
[10]
  glycan array binding signal (z-score): -0.344
[11]
  glycan array binding signal (z-score): -0.328
[12]
  glycan array binding signal (z-score): -0.336
[13]
  glycan array binding signal (z-score): 0.694
[14]
  glycan array binding signal (z-score): 4.21
[15]
  glycan array binding signal (z-score): 1.87
[16]
  glycan array binding signal (z-score): -0.331
[17]
  glycan array binding signal (z-score): -0.176
[18]
  glycan array binding signal (z-score): -0.355
[19]
  glycan array binding signal (z-score): 0.725
[20]
  glycan array binding signal (z-score): -0.218
[21]
  glycan array binding signal (z-score): 2.79
[22]
  glycan array binding signal (z-score): -0.241
Gal(b1-3)GlcNAc6S
  glycan array binding signal (z-score): -0.243
[23]
  glycan array binding signal (z-score): -0.307
[24]
  glycan array binding signal (z-score): -0.255
[25]
  glycan array binding signal (z-score): -0.272
[26]
  glycan array binding signal (z-score): -0.235
[27]
  glycan array binding signal (z-score): -0.263
[28]
  glycan array binding signal (z-score): 4.48
[29]
  glycan array binding signal (z-score): -0.38
[30]
  glycan array binding signal (z-score): -0.148
[31]
  glycan array binding signal (z-score): -0.276
[32]
  glycan array binding signal (z-score): -0.38
Gal(b1-4)Gal
  glycan array binding signal (z-score): 0.034
[33]
  glycan array binding signal (z-score): -0.37
[34]
  glycan array binding signal (z-score): -0.345
